{
  "source": "the supplement of paper PMC8728848",
  "assay_in_all_cases": "glycan array binding signal (z-score within array); higher = stronger binding",
  "details_in_all_cases": "glycan notation: IUPAC condensed, linker removed",
  "key": {"[1]": {"molecular_target": "Fuc(a1-2)[GalNAc(a1-3)]Gal(b1-4)GlcNAc(b1-2)Man(a1-3)[Fuc(a1-2)[GalNAc(a1-3)]Gal(b1-4)GlcNAc(b1-2)Man(a1-6)]Man(b1-4)GlcNAc(b1-4)[Fuc(a1-6)]GlcNAc", "outline": "(§1)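 The binding signal is a Z-score computed within each array and averaged over linkers. Arrays of the same protein sequence at different concentrations or buffers were also averaged together. Data originate from 3228 arrays in the Consortium for Functional Glycomics database, kept only where the protein sequence was available.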"}, "[2]": {"molecular_target": "Fuc(a1-2)[GalNAc(a1-3)]Gal(b1-4)GlcNAc(b1-2)Man(a1-3)[GalNAc(a1-3)[Fuc(a1-2)]Gal(b1-4)GlcNAc(b1-2)Man(a1-6)]Man(b1-4)GlcNAc(b1-4)GlcNAc", "outline": "as §1"}, "[3]": {"molecular_target": "Fuc(a1-2)[GalNAc(a1-3)]Gal(b1-4)GlcNAc(b1-3)Gal(b1-4)GlcNAc", "outline": "as §1"}, "[4]": {"molecular_target": "Fuc(a1-2)[GalNAc(a1-3)]Gal(b1-4)GlcNAc(b1-3)Gal(b1-4)GlcNAc(b1-3)Gal(b1-4)GlcNAc", "outline": "as §1"}, "[5]": {"molecular_target": "Fuc(a1-2)[GalNAc(a1-3)]Gal(b1-4)GlcNAc(b1-3)GalNAc", "outline": "as §1"}, "[6]": {"molecular_target": "Fuc(a1-2)[GalNAc(a1-3)]Gal(b1-4)[Fuc(a1-3)]GlcNAc", "outline": "as §1"}, "[7]": {"molecular_target": "Fuc(a1-2)[GalNAc(a1-3)]Gal(b1-4)[Fuc(a1-3)]GlcNAc(b1-3)GalNAc", "outline": "as §1"}, "[8]": {"molecular_target": "Fuc(a1-2)[GalNAc(a1-4)]Gal(b1-4)GlcNAc", "outline": "as §1"}, "[9]": {"molecular_target": "Fuc(a1-2)[GalNAc(b1-3)]Gal", "outline": "as §1"}, "Fuc(a1-3)GlcNAc": {"molecular_target": "Fuc(a1-3)GlcNAc", "outline": "as §1"}, "[10]": {"molecular_target": "Fuc(a1-3)[Gal(b1-4)]Glc6S", "outline": "as §1"}, "[11]": {"molecular_target": "Fuc(a1-3)[Gal(b1-4)]GlcNAc", "outline": "as §1"}, "[12]": {"molecular_target": "Fuc(a1-3)[Gal(b1-4)]GlcNAc(b1-2)Man", "outline": "as §1"}, "[13]": {"molecular_target": "Fuc(a1-3)[Gal(b1-4)]GlcNAc(b1-2)Man(a1-3)[Fuc(a1-3)[Gal(b1-4)]GlcNAc(b1-2)Man(a1-6)]Man(b1-4)GlcNAc(b1-4)GlcNAc", "outline": "as §1"}, "[14]": {"molecular_target": "Fuc(a1-3)[Gal(b1-4)]GlcNAc(b1-2)Man(a1-3)[Fuc(a1-3)[Gal(b1-4)]GlcNAc(b1-2)Man(a1-6)]Man(b1-4)GlcNAc(b1-4)[Fuc(a1-6)]GlcNAc", "outline": "as §1"}, "[15]": {"molecular_target": "Fuc(a1-3)[Gal(b1-4)]GlcNAc(b1-2)Man(a1-6)[Gal(b1-4)GlcNAc(b1-2)Man(a1-3)]Man(b1-4)GlcNAc(b1-4)GlcNAc", "outline": "as §1"}, "[16]": {"molecular_target": "Fuc(a1-3)[Gal(b1-4)]GlcNAc(b1-3)Gal(b1-3)[Fuc(a1-4)]GlcNAc", "outline": "as §1"}, "[17]": {"molecular_target": "Fuc(a1-3)[Gal(b1-4)]GlcNAc(b1-3)GalNAc", "outline": "as §1"}, "[18]": {"molecular_target": "Fuc(a1-3)[Gal(b1-4)]GlcNAc(b1-4)Gal(b1-4)[Fuc(a1-3)]GlcNAc", "outline": "as §1"}, "[19]": {"molecular_target": "Fuc(a1-3)[Gal(b1-4)]GlcNAc(b1-4)Gal(b1-4)[Fuc(a1-3)]GlcNAc(b1-4)Gal(b1-4)[Fuc(a1-3)]GlcNAc", "outline": "as §1"}, "[20]": {"molecular_target": "Fuc(a1-3)[Gal(b1-4)]GlcNAc(b1-6)GalNAc", "outline": "as §1"}, "[21]": {"molecular_target": "Fuc(a1-3)[Gal(b1-4)]GlcNAc(b1-6)[Gal(b1-3)GlcNAc(b1-3)]Gal(b1-4)Glc", "outline": "as §1"}, "[22]": {"molecular_target": "Fuc(a1-3)[Gal(b1-4)]GlcNAc(b1-6)[Neu5Ac(a2-3)Gal(b1-3)]GalNAc", "outline": "as §1"}, "[23]": {"molecular_target": "Fuc(a1-3)[Gal(b1-4)]GlcNAc6S", "outline": "as §1"}, "[24]": {"molecular_target": "Fuc(a1-3)[Gal3S(b1-4)]Glc6S", "outline": "as §1"}, "[25]": {"molecular_target": "Fuc(a1-3)[Gal3S(b1-4)]GlcNAc", "outline": "as §1"}, "[26]": {"molecular_target": "Fuc(a1-3)[Gal3S(b1-4)]GlcNAc6S", "outline": "as §1"}, "[27]": {"molecular_target": "Fuc(a1-3)[GalNAc(b1-4)]GlcNAc", "outline": "as §1"}, "[28]": {"molecular_target": "Fuc(a1-3)[GalNAc(b1-4)]GlcNAc6S", "outline": "as §1"}, "[29]": {"molecular_target": "Fuc(a1-3)[GalNAc3S(b1-4)]GlcNAc", "outline": "as §1"}, "[30]": {"molecular_target": "Fuc(a1-3)[Neu5Ac(a2-3)]Gal(b1-4)GlcNAc(b1-3)GalNAc", "outline": "as §1"}, "Fuc(a1-4)GlcNAc": {"molecular_target": "Fuc(a1-4)GlcNAc", "outline": "as §1"}, "Fuc(b1-3)GlcNAc": {"molecular_target": "Fuc(b1-3)GlcNAc", "outline": "as §1"}, "Gal(a1-2)Gal": {"molecular_target": "Gal(a1-2)Gal", "outline": "as §1"}, "Gal(a1-3)Gal": {"molecular_target": "Gal(a1-3)Gal", "outline": "as §1"}, "Gal(a1-3)Gal(b1-3)GlcNAc": {"molecular_target": "Gal(a1-3)Gal(b1-3)GlcNAc", "outline": "as §1"}, "[31]": {"molecular_target": "Gal(a1-3)Gal(b1-3)GlcNAc(b1-2)Man(a1-3)[Gal(a1-3)Gal(b1-3)GlcNAc(b1-2)Man(a1-6)]Man(b1-4)GlcNAc(b1-4)GlcNAc", "outline": "as §1"}},
  "note": "The other results are listed elsewhere or left out.",
  "data": [
    {"binder": "Calsepa (Calystegia sepium), P93114 (protein) MAVPMDTISGPWGNNGGNFWSFRPVNKINQIVISYGGGGNNPIALTFSSTKADGSKDTITVGGGGPDSITGTEMVNIGTDEYLTGISGTFGIYLDNNVLRSITFTTNLKAHGPYGQKVGTPFSSANVVGNEIVGFLGRSGYYVDAIGTYNRHK", "values": [
      {"measurement": "glycan array binding signal (z-score)", "setting": "[1]", "value": -0.263},
      {"measurement": "glycan array binding signal (z-score)", "setting": "[2]", "value": -0.053},
      {"measurement": "glycan array binding signal (z-score)", "setting": "[3]", "value": -0.252},
      {"measurement": "glycan array binding signal (z-score)", "setting": "[4]", "value": -0.246},
      {"measurement": "glycan array binding signal (z-score)", "setting": "[5]", "value": -0.272},
      {"measurement": "glycan array binding signal (z-score)", "setting": "[6]", "value": -0.246},
      {"measurement": "glycan array binding signal (z-score)", "setting": "[7]", "value": -0.267},
      {"measurement": "glycan array binding signal (z-score)", "setting": "[8]", "value": -0.247},
      {"measurement": "glycan array binding signal (z-score)", "setting": "[9]", "value": -0.247},
      {"measurement": "glycan array binding signal (z-score)", "setting": "Fuc(a1-3)GlcNAc", "value": -0.24},
      {"measurement": "glycan array binding signal (z-score)", "setting": "[10]", "value": -0.244},
      {"measurement": "glycan array binding signal (z-score)", "setting": "[11]", "value": -0.246},
      {"measurement": "glycan array binding signal (z-score)", "setting": "[12]", "value": -0.262},
      {"measurement": "glycan array binding signal (z-score)", "setting": "[13]", "value": -0.082},
      {"measurement": "glycan array binding signal (z-score)", "setting": "[14]", "value": -0.272},
      {"measurement": "glycan array binding signal (z-score)", "setting": "[15]", "value": 0.752},
      {"measurement": "glycan array binding signal (z-score)", "setting": "[16]", "value": -0.247},
      {"measurement": "glycan array binding signal (z-score)", "setting": "[17]", "value": -0.27},
      {"measurement": "glycan array binding signal (z-score)", "setting": "[18]", "value": -0.253},
      {"measurement": "glycan array binding signal (z-score)", "setting": "[19]", "value": -0.25},
      {"measurement": "glycan array binding signal (z-score)", "setting": "[20]", "value": -0.264},
      {"measurement": "glycan array binding signal (z-score)", "setting": "[21]", "value": -0.272},
      {"measurement": "glycan array binding signal (z-score)", "setting": "[22]", "value": -0.264},
      {"measurement": "glycan array binding signal (z-score)", "setting": "[23]", "value": -0.247},
      {"measurement": "glycan array binding signal (z-score)", "setting": "[24]", "value": -0.185},
      {"measurement": "glycan array binding signal (z-score)", "setting": "[25]", "value": -0.213},
      {"measurement": "glycan array binding signal (z-score)", "setting": "[26]", "value": -0.245},
      {"measurement": "glycan array binding signal (z-score)", "setting": "[27]", "value": -0.236},
      {"measurement": "glycan array binding signal (z-score)", "setting": "[28]", "value": -0.262},
      {"measurement": "glycan array binding signal (z-score)", "setting": "[29]", "value": -0.265},
      {"measurement": "glycan array binding signal (z-score)", "setting": "[30]", "value": -0.154},
      {"measurement": "glycan array binding signal (z-score)", "setting": "Fuc(a1-4)GlcNAc", "value": -0.244},
      {"measurement": "glycan array binding signal (z-score)", "setting": "Fuc(b1-3)GlcNAc", "value": -0.248},
      {"measurement": "glycan array binding signal (z-score)", "setting": "Gal(a1-2)Gal", "value": -0.242},
      {"measurement": "glycan array binding signal (z-score)", "setting": "Gal(a1-3)Gal", "value": -0.251},
      {"measurement": "glycan array binding signal (z-score)", "setting": "Gal(a1-3)Gal(b1-3)GlcNAc", "value": -0.249},
      {"measurement": "glycan array binding signal (z-score)", "setting": "[31]", "value": -0.137}
    ]}
  ]
}
